Results published in article PMC3562233 (PLoS ONE, 2013).

Columns and labels:
[1] = test system: yeast strain containing the empty plasmid; assay type: cell-based

| Structure (SMILES) | effect on growth of the yeast strain containing the empty plasmid ([1]; amantadine at 0.3, 1 or 3 µM, compound 6 at different concentrations, 40 h) | effect on growth of the yeast strain containing the empty plasmid [1] | cytotoxicity towards uninfected MDCK cells (MDCK cells) |
| --- | --- | --- | --- |
| NC12CC3CC(CC(C3)C1)C2 [Amantadine, reference compound] | not affected | – | – |
| CC(NC(=S)NC(=O)C=Cc1ccco1)C12CC3CC(CC(C3)C1)C2 (stereo not drawn) [Compound 6, N-(([1-(1-adamantyl)ethyl]amino)carbonothioyl)-3-(2-furyl)acrylamide] | – | no effect | very low cytotoxicity |
| Cc1nc(C23CC4CC(CC(C4)C2)C3)c[nH]1 [Compound 10, 5-(adamantan-1-yl) -2-methyl-1H-imidazole] | – | – | very low cytotoxicity |
| N=C(N)NC(=O)c1nc(Cl)c(N2CCCCCC2)nc1N [Compound 14, Hexamethylene amiloride] | – | – | more cytotoxic |
| CCSC1=NCN(C2CCCCCCC2)CN1 [Compound 34, 3-cyclooctyl-6-(ethylthio)-1,2,3,4-tetrahydro-1,3,5-triazine] | – | – | very low cytotoxicity |

Read-outs that look alike come from different tables or passages of the source.
